{"source": "the supplement of paper PMC8728848", "binders": {"B1": {"name": "AidA (Burkholderia cenocepacia) (protein)", "chain": "MSRVTDVLVSFDTETILKKYPNPSKNPAAPTLIDWRYVYMVTNQDNVISGQAGGELDLKAQVGDLIRWRETSLSLGFENQVVFYKFIGNVGNDLISTPTPRVAEASIPVPNTSKPEVPTCQKVANYYWSSECLKVGRVTYHFQFQIIDRNCQSQGCFSWDPFISIHN"}}, "experiment_in_all_cases": "glycan array binding signal (z-score within array); higher = stronger binding", "details_in_all_cases": "glycan notation: IUPAC condensed, linker removed", "key": {"Fuc(a1-2)Gal": {"target": "Fuc(a1-2)Gal", "in_short": "(§1)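 Glycan array data were curated from 3228 arrays in the Consortium for Functional Glycomics database and kept only where the protein sequence was available. Glycan names were converted to IUPAC-condensed notation, and columns mapping to the same glycan were averaged. The binding signal is a within-array Z-score, averaged across arrays of the same protein sequence at different concentrations or buffers and across linkers. Negative Z-scores can be read as non-binding.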"}, "Fuc(a1-2)Gal(b1-3)GalNAc": {"target": "Fuc(a1-2)Gal(b1-3)GalNAc", "in_short": "as §1"}, "[1]": {"target": "Fuc(a1-2)Gal(b1-3)GalNAc(a1-3)[Fuc(a1-2)]Gal(b1-4)Glc", "in_short": "as §1"}, "[2]": {"target": "Fuc(a1-2)Gal(b1-3)GalNAc(a1-3)[Fuc(a1-2)]Gal(b1-4)GlcNAc", "in_short": "as §1"}, "[3]": {"target": "Fuc(a1-2)Gal(b1-3)GalNAc(b1-3)Gal", "in_short": "as §1"}, "[4]": {"target": "Fuc(a1-2)Gal(b1-3)GalNAc(b1-3)Gal(a1-4)Gal(b1-4)Glc", "in_short": "as §1"}, "[5]": {"target": "Fuc(a1-2)Gal(b1-3)GalNAc(b1-4)[Neu5Ac(a2-3)]Gal(b1-4)Glc", "in_short": "as §1"}, "Fuc(a1-2)Gal(b1-3)GlcNAc": {"target": "Fuc(a1-2)Gal(b1-3)GlcNAc", "in_short": "as §1"}, "[6]": {"target": "Fuc(a1-2)Gal(b1-3)GlcNAc(b1-2)Man(a1-3)[Fuc(a1-2)Gal(b1-3)GlcNAc(b1-2)Man(a1-6)]Man(b1-4)GlcNAc(b1-4)GlcNAc", "in_short": "as §1"}, "[7]": {"target": "Fuc(a1-2)Gal(b1-3)GlcNAc(b1-2)Man(a1-3)[Fuc(a1-2)Gal(b1-3)GlcNAc(b1-2)Man(a1-6)]Man(b1-4)GlcNAc(b1-4)[Fuc(a1-6)]GlcNAc", "in_short": "as §1"}, "[8]": {"target": "Fuc(a1-2)Gal(b1-3)GlcNAc(b1-3)Gal(b1-4)Glc", "in_short": "as §1"}, "[9]": {"target": "Fuc(a1-2)Gal(b1-3)GlcNAc(b1-3)GalNAc", "in_short": "as §1"}, "[10]": {"target": "Fuc(a1-2)Gal(b1-3)GlcNAc(b1-3)[Fuc(a1-2)Gal(b1-3)GlcNAc(b1-6)]GalNAc", "in_short": "as §1"}, "[11]": {"target": "Fuc(a1-2)Gal(b1-3)GlcNAc(b1-3)[Gal(b1-4)GlcNAc(b1-6)]Gal(b1-4)Glc", "in_short": "as §1"}, "[12]": {"target": "Fuc(a1-2)Gal(b1-3)GlcNAc(b1-3)[Neu5Ac(a2-6)Gal(b1-4)GlcNAc(b1-6)]Gal(b1-4)Glc", "in_short": "as §1"}, "[13]": {"target": "Fuc(a1-2)Gal(b1-3)GlcNAc6S", "in_short": "as §1"}, "[14]": {"target": "Fuc(a1-2)Gal(b1-3)[Fuc(a1-4)]GlcNAc", "in_short": "as §1"}, "[15]": {"target": "Fuc(a1-2)Gal(b1-3)[Fuc(a1-4)]GlcNAc(b1-2)Man(a1-3)[Fuc(a1-2)Gal(b1-3)[Fuc(a1-4)]GlcNAc(b1-2)Man(a1-3)]Man(b1-4)GlcNAc(b1-4)GlcNAc", "in_short": "as §1"}, "[16]": {"target": "Fuc(a1-2)Gal(b1-3)[Fuc(a1-4)]GlcNAc(b1-2)Man(a1-3)[Fuc(a1-2)Gal(b1-3)[Fuc(a1-4)]GlcNAc(b1-2)Man(a1-6)]Man(b1-4)GlcNAc(b1-4)[Fuc(a1-6)]GlcNAc(b1-4)[Fuc(a1-6)]GlcNAc", "in_short": "as §1"}, "[17]": {"target": "Fuc(a1-2)Gal(b1-3)[Fuc(a1-4)]GlcNAc(b1-3)[Fuc(a1-3)[Gal(b1-4)]GlcNAc(b1-6)]Gal(b1-4)Glc", "in_short": "as §1"}, "[18]": {"target": "Fuc(a1-2)Gal(b1-3)[Fuc(a1-4)]GlcNAc(b1-3)[Gal(b1-4)GlcNAc(b1-6)]Gal(b1-4)Glc", "in_short": "as §1"}, "Fuc(a1-2)Gal(b1-4)Glc": {"target": "Fuc(a1-2)Gal(b1-4)Glc", "in_short": "as §1"}, "Fuc(a1-2)Gal(b1-4)Glc6S": {"target": "Fuc(a1-2)Gal(b1-4)Glc6S", "in_short": "as §1"}, "Fuc(a1-2)Gal(b1-4)GlcNAc": {"target": "Fuc(a1-2)Gal(b1-4)GlcNAc", "in_short": "as §1"}, "[19]": {"target": "Fuc(a1-2)Gal(b1-4)GlcNAc(b1-2)Man", "in_short": "as §1"}, "[20]": {"target": "Fuc(a1-2)Gal(b1-4)GlcNAc(b1-2)Man(a1-3)[Fuc(a1-2)Gal(b1-4)GlcNAc(b1-2)Man(a1-6)]Man(b1-4)GlcNAc(b1-4)GlcNAc", "in_short": "as §1"}, "[21]": {"target": "Fuc(a1-2)Gal(b1-4)GlcNAc(b1-2)Man(a1-3)[Fuc(a1-2)Gal(b1-4)GlcNAc(b1-2)Man(a1-6)]Man(b1-4)GlcNAc(b1-4)[Fuc(a1-6)]GlcNAc", "in_short": "as §1"}, "[22]": {"target": "Fuc(a1-2)Gal(b1-4)GlcNAc(b1-2)[Fuc(a1-2)Gal(b1-4)GlcNAc(b1-4)]Man(a1-3)[Fuc(a1-2)Gal(b1-4)GlcNAc(b1-2)Man(a1-6)]Man(b1-4)GlcNAc(b1-4)GlcNAc", "in_short": "as §1"}, "[23]": {"target": "Fuc(a1-2)Gal(b1-4)GlcNAc(b1-3)Gal(b1-4)GlcNAc", "in_short": "as §1"}, "[24]": {"target": "Fuc(a1-2)Gal(b1-4)GlcNAc(b1-3)Gal(b1-4)GlcNAc(b1-2)Man(a1-3)[Fuc(a1-2)Gal(b1-4)GlcNAc(b1-3)Gal(b1-4)GlcNAc(b1-2)Man(a1-6)]Man(b1-4)GlcNAc(b1-4)GlcNAc", "in_short": "as §1"}}, "note": "The other results are listed elsewhere or left out."}
{"binder": "B1", "values": [{"measurement": "glycan array binding signal (z-score)", "setting": "Fuc(a1-2)Gal", "value": 0.775}, {"measurement": "glycan array binding signal (z-score)", "setting": "Fuc(a1-2)Gal(b1-3)GalNAc", "value": -0.214}, {"measurement": "glycan array binding signal (z-score)", "setting": "[1]", "value": -0.374}, {"measurement": "glycan array binding signal (z-score)", "setting": "[2]", "value": -0.452}, {"measurement": "glycan array binding signal (z-score)", "setting": "[3]", "value": 0.864}, {"measurement": "glycan array binding signal (z-score)", "setting": "[4]", "value": -0.416}, {"measurement": "glycan array binding signal (z-score)", "setting": "[5]", "value": -0.274}, {"measurement": "glycan array binding signal (z-score)", "setting": "Fuc(a1-2)Gal(b1-3)GlcNAc", "value": -0.432}, {"measurement": "glycan array binding signal (z-score)", "setting": "[6]", "value": 0.697}, {"measurement": "glycan array binding signal (z-score)", "setting": "[7]", "value": 0.268}, {"measurement": "glycan array binding signal (z-score)", "setting": "[8]", "value": -0.217}, {"measurement": "glycan array binding signal (z-score)", "setting": "[9]", "value": -0.808}, {"measurement": "glycan array binding signal (z-score)", "setting": "[10]", "value": -0.616}, {"measurement": "glycan array binding signal (z-score)", "setting": "[11]", "value": 0.16}, {"measurement": "glycan array binding signal (z-score)", "setting": "[12]", "value": -0.287}, {"measurement": "glycan array binding signal (z-score)", "setting": "[13]", "value": 0.027}, {"measurement": "glycan array binding signal (z-score)", "setting": "[14]", "value": -0.268}, {"measurement": "glycan array binding signal (z-score)", "setting": "[15]", "value": 0.069}, {"measurement": "glycan array binding signal (z-score)", "setting": "[16]", "value": -0.336}, {"measurement": "glycan array binding signal (z-score)", "setting": "[17]", "value": -0.286}, {"measurement": "glycan array binding signal (z-score)", "setting": "[18]", "value": -0.394}, {"measurement": "glycan array binding signal (z-score)", "setting": "Fuc(a1-2)Gal(b1-4)Glc", "value": 0.106}, {"measurement": "glycan array binding signal (z-score)", "setting": "Fuc(a1-2)Gal(b1-4)Glc6S", "value": -0.383}, {"measurement": "glycan array binding signal (z-score)", "setting": "Fuc(a1-2)Gal(b1-4)GlcNAc", "value": -0.597}, {"measurement": "glycan array binding signal (z-score)", "setting": "[19]", "value": 0.458}, {"measurement": "glycan array binding signal (z-score)", "setting": "[20]", "value": -0.247}, {"measurement": "glycan array binding signal (z-score)", "setting": "[21]", "value": -0.443}, {"measurement": "glycan array binding signal (z-score)", "setting": "[22]", "value": -0.343}, {"measurement": "glycan array binding signal (z-score)", "setting": "[23]", "value": -0.74}, {"measurement": "glycan array binding signal (z-score)", "setting": "[24]", "value": 0.938}]}
